Hit rate of the full screen: of about 310,000 compounds, about 14,000 (4.5%) showed an effect of 50% or more. Effects have a minus sign here. The list shows a part of the results.
Target: human ether-à-go-go-related gene (hERG) potassium channel (human, UniProt Q12809)
Experiment: primary screen, population patch clamp on CHO cells stably expressing hERG
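Also: peak tail current of the secondary pulse compared with the same well before compound.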

Chain of human ether-à-go-go-related gene (hERG) potassium channel (Q12809 whole entry, looked up): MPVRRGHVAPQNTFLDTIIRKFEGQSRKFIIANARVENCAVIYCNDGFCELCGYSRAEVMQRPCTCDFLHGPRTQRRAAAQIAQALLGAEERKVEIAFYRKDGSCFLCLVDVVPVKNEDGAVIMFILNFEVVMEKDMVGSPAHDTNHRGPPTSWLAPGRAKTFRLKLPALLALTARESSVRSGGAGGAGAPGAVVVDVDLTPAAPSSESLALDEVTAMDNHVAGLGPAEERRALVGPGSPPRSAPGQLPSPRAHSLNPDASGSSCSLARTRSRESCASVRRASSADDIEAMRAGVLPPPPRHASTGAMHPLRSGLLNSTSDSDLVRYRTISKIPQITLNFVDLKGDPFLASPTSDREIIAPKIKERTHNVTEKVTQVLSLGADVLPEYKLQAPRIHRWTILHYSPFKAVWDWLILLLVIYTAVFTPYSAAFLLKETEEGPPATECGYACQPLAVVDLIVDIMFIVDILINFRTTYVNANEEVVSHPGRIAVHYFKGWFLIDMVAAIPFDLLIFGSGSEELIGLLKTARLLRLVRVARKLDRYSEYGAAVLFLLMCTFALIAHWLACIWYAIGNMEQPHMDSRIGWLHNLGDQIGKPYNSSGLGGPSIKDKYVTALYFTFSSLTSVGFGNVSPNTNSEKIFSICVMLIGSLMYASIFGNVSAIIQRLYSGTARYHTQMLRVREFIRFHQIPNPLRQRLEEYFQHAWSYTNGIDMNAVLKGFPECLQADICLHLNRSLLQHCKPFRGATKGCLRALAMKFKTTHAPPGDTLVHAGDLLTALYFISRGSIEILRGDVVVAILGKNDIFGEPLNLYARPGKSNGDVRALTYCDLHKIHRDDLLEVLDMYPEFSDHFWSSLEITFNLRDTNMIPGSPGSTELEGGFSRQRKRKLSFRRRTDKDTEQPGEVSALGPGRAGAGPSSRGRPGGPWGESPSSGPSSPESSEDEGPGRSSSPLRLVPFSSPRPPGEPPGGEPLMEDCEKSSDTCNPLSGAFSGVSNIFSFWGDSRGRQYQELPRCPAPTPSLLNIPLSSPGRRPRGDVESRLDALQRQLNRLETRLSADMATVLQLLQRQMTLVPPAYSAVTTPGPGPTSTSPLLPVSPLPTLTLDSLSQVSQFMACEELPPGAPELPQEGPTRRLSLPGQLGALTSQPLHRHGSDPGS

Structure (SMILES)	hERG current change (%, negative = inhibition) at 10uM [%]
CCC(C)(C)C1CCC(NC(=O)c2ccc(S(=O)(=O)N3CCOCC3)cc2)CC1 (centres unmarked)	-12.1
Cc1ccc(C2=NS(=O)(=O)N(C)C(C(=O)NC3CCCC3)=C2)cc1	-3.36
COc1cc(/C=N/NC(=O)CC(=O)NC2CCCCC2)ccc1O	17.2
CC(C)n1nnnc1SCC(=O)N1CCN(C(=O)c2ccco2)CC1	4.86
Cc1ccc(-c2[nH]c3cc(C(=O)NCCCn4ccnc4)ccc3c(=O)c2O)cc1	4.14
O=C(NC(=S)N1CCN(CCO)CC1)C12CC3CC(CC(C3)C1)C2	1.36
CCOC(=O)C(NCc1ccc2c(c1)OCO2)(NC(=O)CC)C(F)(F)F (centres unmarked)	14.3
CCCCc1nc2cc(C(=O)N3CCC(OCCOC)CC3)ccc2o1	8.07
CN1CCN(C(=O)/C=C\C(=O)O)CC1	0.151
C=CCSc1nc(Cc2ccc(Cl)cc2)nc2ccccc12	2.63
COc1ccc(OC)c(NC(=O)CSc2nccn2Cc2ccco2)c1	7.18
Cc1ccc([N+](=O)[O-])cc1NC(=O)CSc1nncc2ccccc12	-9.86
N/C(=N\OC(=O)Nc1ccccc1)c1cccc(C(F)(F)F)c1	-25.6
COc1ccc(C(=O)Nc2ccc(S(=O)(=O)N3CCCCC3)cc2)cc1OC	-9.83
Cc1cc(C)n(-c2ccc(C(=O)Nc3ccc4c(c3)OCCO4)cc2)n1	-9.55
Cc1ccc(N2C(=O)CC(N3CCSCC3)C2=O)c(C)c1 (centres unmarked)	10.2
CN(Cc1nc(CC2CC2)no1)CC12CC3CC(CC(C3)C1)C2	0.8
COC(=O)Cc1ccc(NC(=S)NCCO)cc1	17.6
COc1cccc(-c2nnn(CCC(=O)O)n2)c1	4.12

Structure (SMILES)	hERG current change (%, negative = inhibition) at 10uM [%]
CCOC(=O)C1(CCCc2ccccc2)CCN(C(=O)CCc2cnn(C)c2)CC1	-74.2
O=C(NCC(c1ccco1)N1CCN(c2ccccc2)CC1)OCc1ccccc1 (centres unmarked)	-10.2
Cc1nnc(SCC(=O)c2ccc(S(=O)(=O)N3CCOCC3)cc2)n1-c1ccccc1	-20.2
CCc1c(C(=O)OCc2ccccc2)[nH]c(C)c1C	7.38
NC(=O)COc1cccc(/C=N/NC(=O)c2ccc(-n3cccc3)cc2)c1	13.5
CCOc1ccc(NC(=O)C2CCCN2C(=O)Oc2ccccc2)cc1 (centres unmarked)	6.3
COC(=O)c1ccccc1OCCN1CCCCCC1.O=C(O)C(=O)O	-46.2
O=C(Nc1ccccc1Br)c1cc(=O)c2ccccc2o1	6.61
Nc1ncc2c(n1)CCN(c1ccc([N+](=O)[O-])cc1)C2	-43.2
CC(=O)c1ccc(NC(=O)COC(=O)CCN2C(=O)c3cccc([N+](=O)[O-])c3C2=O)cc1	22.1
CCOc1ccc(/C(O)=C2/C(=O)C(=O)N(c3nc(C)c(C)s3)C2c2ccco2)cc1 (centres unmarked)	-1.14
O=c1cc(-c2ccco2)nc(-c2cccs2)o1	17.4
CCN(CC)CC#CCOC(c1ccccc1)c1ccccc1.Cl	-43.3
CCCCn1c(=O)[nH]c(=O)c2c1nc(-c1ccsc1)n2Cc1ccccc1	-7.65
COc1cc(OC)c(OC)cc1/C=C/c1cc(C(F)(F)F)[nH]c(=O)n1	26.6
CCOC(=O)Cc1csc(N/N=C/c2ccc(Cl)cc2)n1	14.8
O=C(Nc1cccc(F)c1)N1CC=C(c2ccc(Cl)cc2)CC1	-13.8
CCN(c1cccc(C)c1)S(=O)(=O)c1cn(CC(=O)OC)c2ccc([N+](=O)[O-])cc12	2.47
O=C(COC(=O)c1ccc(Cl)c(S(=O)(=O)N2CCc3ccccc3C2)c1)Nc1ncc(Cl)cc1Cl	3.4

Structure (SMILES)	hERG current change (%, negative = inhibition) at 10uM [%]
COc1ccc(N2CC(NC(=O)c3cccc4ccccc34)CC2=O)cc1OC (centres unmarked)	-2.85
Cc1cc(Br)cc2c1N(C)C(=O)C2(c1ccc(O)cc1)c1ccc(O)cc1	3.46
COc1cc(NC(=S)N2CCN(C)CC2)c(OC)cc1Cl	-21.4
CCc1nnc(N2C(=O)c3ccccc3C2(O)c2ccccc2)s1 (centres unmarked)	-12.9
NC(=O)c1c(NC(=O)CN2CCN(S(=O)(=O)c3ccccc3)CC2)sc2c1CCC2	-43.7
Cc1nc2c3cc(F)ccc3n(Cc3ccc(F)cc3)c2s1	13.8
Cc1ccc2c(CC(=O)NCC3(N4CCOCC4)CCCCC3)coc2c1C	-25.5
CC(O)[C@H]1CNC(=O)C(=O)N1CCc1cc(C(F)(F)F)cc(C(F)(F)F)c1 (some centres unmarked)	18.9
COCCCn1c(=N)c(C(=O)NCC2CCCO2)cc2c(=O)n3ccccc3nc21 (centres unmarked)	-64.3
CN1CCN(C(=O)c2cc3nc(-c4ccco4)cc(C(F)(F)F)n3n2)CC1	8.28
CC[n+]1cc(-c2ccccc2)nc(N2CCOCC2)n1.[I-]	2.69
CC1(C2CC2)NC(=O)N(CC(=O)NCc2ccc(Cl)cc2Cl)C1=O (centres unmarked)	-2.25
Cc1cc2cc(CN(Cc3nnnn3C3CCCCC3)CC3CCCO3)c(=O)[nH]c2cc1C (centres unmarked)	-7.12
CCOC(=O)C1CCN(C(=O)COC(=O)CCOc2ccc(C)cc2)CC1	-4.14
CCOC(=O)c1ccc2nc(C)cc(Nc3cccc(C(=O)O)c3)c2c1	5.41
O=C(NNc1ccc([N+](=O)[O-])cc1[N+](=O)[O-])c1ccco1	4.59
COc1ccccc1N1CCN(C2=NS(=O)(=O)c3ccccc32)CC1	-7.39
N#Cc1ccc(C(=O)CSc2n[nH]c(=O)n2Cc2ccco2)cc1	-45.8

Reference: publication PMC4336329 (PLoS ONE, 2015)
